# Assay results from the supplement of paper PMC9135407.
# Values joined by “and” are separate entries in the source; they are usually repeats but may differ in a detail not shown here. Identical values can stand only once. Counter-ions that a name gives are not always drawn. In all, about 5,800 compounds went through this assay and about 620 (11%) showed activity.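 The calls were made as follows: active = score above a cut-off or among the top three wells of a plate; in these data no inactive exceeds 0.85.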 The list shows a part of the results, in another mix than the full data.
# System: primary human hepatic stellate cells (donor 1)
# Test: scaled lipid accumulation score (0 = DMSO-like, 1 = nortriptyline-like); higher = stronger HSC inactivation (lipid re-accumulation), active = hit call of the paper
# Details: 48 h
# Protocol: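 Primary lipid accumulation screen in primary human hepatic stellate cell myofibroblasts (donor 1, passage 8) in 384-well plates. 100 nL of library compound was pin-transferred into 30 µL medium in duplicate, and cells were treated for 48 h. The 'Scaled' score combines distance from plate baseline, toxicity and reproducibility penalties, and is normalised to nortriptyline (positive) and DMSO (negative) controls on each plate. A hit is defined as scaled >0.85 or among the top 3 wells per plate.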
# [1] = library stock concentration: 10 mM
# [2] = library stock concentration: 3.33 mM
# [3] = library stock concentration: 1 mM
compound,measurement,setting,value
O=c1[nH]c2ccccc2n1C1CCN(CCCC(c2ccc(F)cc2)c2ccc(F)cc2)CC1 [Pimozide],scaled lipid accumulation score,[1],active: 1.15
OCc1cnc[nH]1 [4-Imidazolemethanol hydrochloride],scaled lipid accumulation score,[1],inactive: 0.159
CO[C@H]1[C@H](O)[C@@H](O[C@H]2CC[C@]3(C=O)C4CC[C@]5(C)[C@@H](C6=CC(=O)OC6)CC[C@]5(O)C4CC[C@@H]3C2)O[C@@H](C)[C@@H]1O (stereo not given in full) [Peruvoside],scaled lipid accumulation score,[1],active: 0.873
CN1CCc2cc3c(cc2[C@H]1[C@@H]1OC(=O)c2c1ccc1c2OCO1)OCO3 [Bicuculline (+)],scaled lipid accumulation score,,inactive: 0.03
COC1=CC(=O)O[C@@H](/C=C/c2ccccc2)C1 (racemic) [Kavain (+/-)],scaled lipid accumulation score,library stock concentration: 21.7 mM,inactive: 0.117
COC1=CC(=O)O[C@@H](/C=C/c2ccccc2)C1 [Kawain],scaled lipid accumulation score,,inactive: 0.119
O=C1CN=C(c2cccc(Br)c2)c2oc3ccccc3c2N1,scaled lipid accumulation score,[1],inactive: 0.159
O=C(O)CC[N+](=O)[O-] [3-Nitropropionic acid],scaled lipid accumulation score,[1],inactive: 0.009
CN1C[C@H](CNC(=O)OCc2ccccc2)C[C@@H]2c3cccc4c3c(cn4C)C[C@H]21 [Metergoline],scaled lipid accumulation score,[1],inactive: 0.653
CO/C1=C\C(C)=C\[C@@H](C)[C@@H](O)[C@@H](C)C/C(C)=C/C=C/[C@H](OC)[C@@H]([C@@H](C)[C@@H](O)[C@H](C)[C@@]2(O)C[C@@H](O)[C@H](C)[C@@H](C(C)C)O2)OC1=O [Bafilomycin A1],scaled lipid accumulation score,library stock concentration: 800 uM,active: 1.08
O=[N+]([O-])c1ncc[nH]1 [Azomycin],scaled lipid accumulation score,[2],inactive: ≤ 0
same,scaled lipid accumulation score,[1],inactive: ≤ 0
CC(=O)O[C@H]1CC[C@@]2(C)C(=CC[C@@H]3[C@@H]2CC[C@]2(C)C(=O)CC[C@@H]32)C1 [Prasterone acetate],scaled lipid accumulation score,[1],inactive: 0.103
CC(=O)O[C@H]1CC[C@@]2(C)C(=CC[C@@H]3[C@@H]2CC[C@]2(C)C(=O)CC[C@@H]32)C1 [Dehydroisoandosterone 3-acetate],scaled lipid accumulation score,,inactive: ≤ 0
O=C(NCNC(=O)NC1C(=O)NC(=O)N1CO)NC1C(=O)NC(=O)N1CO (stereo not given) [Imidurea],scaled lipid accumulation score,,inactive: 0.015
CCCN1CCC[C@@H]2Cc3n[nH]cc3C[C@H]21 [Quinpirole HCl (-)-],scaled lipid accumulation score,library stock concentration: 9.1 mM,inactive: ≤ -0.006
CCCN1CCC[C@@H]2Cc3n[nH]cc3C[C@H]21 [(-)-Quinpirole hydrochloride],scaled lipid accumulation score,,inactive: ≤ 0
same,scaled lipid accumulation score,[1],inactive: ≤ 0 and inactive: ≤ -0.006
CCCN1CCC[C@@H]2Cc3n[nH]cc3C[C@H]21 [(?)-Quinpirole dihydrochloride],scaled lipid accumulation score,[1],inactive: ≤ 0
CCCCCCCCCCCCCCCCOC[C@@H](O)COP(=O)([O-])OCC[N+](C)(C)C,scaled lipid accumulation score,[3],inactive: ≤ 0 and inactive: ≤ -0.021
CCCCC/C=C\C/C=C\C/C=C\C/C=C\CCCC(N)=O [Arachidonoyl amide],scaled lipid accumulation score,[3],inactive: ≤ 0
CCCCC/C=C\C/C=C\C/C=C\C/C=C\CCCC(N)=O [Arachidonamide],scaled lipid accumulation score,[3],inactive: ≤ -0.021
CCCCCCCCCOc1ccc2[nH]cc(CCN)c2c1 [5-Nonyloxytryptamine],scaled lipid accumulation score,library stock concentration: 9.9 mM,inactive: 0.5
Cc1nccc2c1[nH]c1cc(O)ccc12 [Harmol hydrochloride],scaled lipid accumulation score,[1],inactive: ≤ 0
CC(C)c1cccc(C(C)C)c1O [Propofol],scaled lipid accumulation score,,inactive: 0.085
same,scaled lipid accumulation score,[1],inactive: 0.323
CC(C)c1cccc(C(C)C)c1O,scaled lipid accumulation score,[1],inactive: ≤ 0
"CC12NC(Cc3ccccc31)c1ccccc12 (single isomer, unassigned; (+)) [(+)-MK 801 maleate]",scaled lipid accumulation score,[1],inactive: 0.18
CCN1CCN(C(=O)Cc2ccc(Nc3ncc(F)c(Nc4ccc(C(=O)Nc5ccccc5Cl)cc4)n3)cc2)CC1 [Aurora A Inhibitor I],scaled lipid accumulation score,[1],active: 1.24
CCOC(=O)c1cncn1[C@H](C)c1ccccc1 [Etomidate],scaled lipid accumulation score,,inactive: ≤ 0
same,scaled lipid accumulation score,[2],inactive: ≤ 0
same,scaled lipid accumulation score,[1],inactive: ≤ 0 and inactive: ≤ -0.006
O=C(CCCN1CCC2(CC1)C(=O)NCN2c1ccccc1)c1ccc(F)cc1 [Spiperone],scaled lipid accumulation score,library stock concentration: 5.1 mM,active: 0.939
"CN1CCc2cc3c(cc2C1C1OC(=O)c2c1ccc1c2OCO1)OCO3 (single isomer, unassigned; (+)) [(+)-Bicuculline]",scaled lipid accumulation score,[2],inactive: ≤ 0
same,scaled lipid accumulation score,[1],inactive: ≤ -0.001 and inactive: ≤ 0
